Assay results as given in patent publication US20260232825A1, “LINKER-DRUG MOLECULE AND ANTIBODY DRUG CONJUGATE, PREPARATION METHOD THEREFOR AND USE THEREOF” (SHANGHAI ESCUGEN BIOTECHNOLOGY CO., LTD., priority 2023, published 2026).

Experiments:
[1] = system: OVCAR-3 mouse subcutaneous tumor; experiment: Mouse xenograft tumor model of folate receptor positive OVCAR-3 cells; type: in vivo; conditions: single administration at 5 mg/kg, day 24
[2] = system: IGROV1 mouse subcutaneous tumor; experiment: Mouse xenograft tumor model of folate receptor positive IGROV1 cells; type: in vivo; conditions: 5 mg/kg once a week, total of two times, day 30

B1: Farletuzumab-LD-38 (conjugate, chains of the INN, looked up)
heavy: EVQLVESGGGVVQPGRSLRLSCSASGFTFSGYGLSWVRQAPGKGLEWVAMISSGGSYTYYADSVKGRFAISRDNAKNTLFLQMDSLRPEDTGVYFCARHGDDPAWFAYWGQGTPVTVSS[human IgG1 constant region omitted here]
light: DIQLTQSPSSLSASVGDRVTITCSVSSSISSNNLHWYQQKPGKAPKPWIYGTSNLASGVPSRFSGSGSGTDYTFTISSLQPEDIATYYCQQWSSYPYMYTFGQGTKVEIKRTVAAPSVFIFPPSDEQLKSGTASVVCLLNNFYPREAKVQWKVDNALQSGNSQESVTEQDSKDSTYSLSSTLTLSKADYEKHKVYACEVTHQGLSSPVTKSFNRGEC
modifications: drug-linker LD-38 conjugate
- tumor inhibition rate (TGI) [1]: 93.5%
- tumor inhibition rate (TGI) [2]: 100%
